Measurements taken from PubChem BioAssay AID1508623 (National Center for Advancing Translational Sciences (NCATS), 2021).
Out of some 48,000 compounds screened, about 450 (0.94%) were called active. Inconclusive results (about 19%) are left out. Calls come from the whole dose curve; as a rule, active = well fitted inhibition curve with a large enough effect; inconclusive = small, poorly fitted or top-dose-only effect; inactive = no such curve, though single readings can be large or run the other way. This is one part of the list.

Experiment: Primary qHTS for Identification of Small Molecule Inhibitors of Huntingtin Promoter Activity; note: nearly all actives have a fitted effect of over 50% in size
Details: HEK293 HTT promoter firefly luciferase reporter (activity 0% = vehicle and -100% = no light), 24 h; series mostly up to 57.5 µM; activity change, negative = inhibition: at the top concentration
How it was run: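 HEK293 Fluc reporter, 2,500 cells/well, 24 h pre-culture; cpds up to 57.5 uM final, 24 h 37 degrees C; Dual-Glo, 10 min RT; normalized vehicle = 0%, zero RLU = -100%.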
Potency is the fitted concentration of half-maximal effect.

SMILES	Potency	activity change, negative = inhibition
COc1cccc(CN2CCc3nc(N4CCN(c5ncccn5)CC4)ncc3C2)c1	active: 25.1 µM	–
COc1ccc(OC)c(NC(=O)c2cc(CN3CCCC3)on2)c1	–	inactive: -3.06%
CC(=O)Nc1ccc(NC(=O)CCNS(=O)(=O)c2cccc3nsnc23)cc1	–	inactive: -6.85%
CCC(C)(CN(C)C)OC(=O)c1ccccc1 (stereo unspecified)	–	inactive: 8.24%
CCc1ccc2oc(-c3cccc(NC(=O)c4ccc(N5CCC(C)CC5)c([N+](=O)[O-])c4)c3)nc2c1	–	inactive: -9.93%
COc1cccc(NC(=O)Cn2cc(S(=O)(=O)N3CCCC3)c(S(=O)(=O)N3CCCC3)c2)c1	–	inactive: -14.3% [at 11.5 µM]
Cc1ccccc1CNC(=O)Cn1ncn2nc(-c3cccs3)cc2c1=O	–	inactive: -5.86%
Cc1cccc(CSc2cn(CC(=O)N3CCCC3)c3ccccc23)c1	–	inactive: 37.4%
CCC(Oc1ccccc1)C(=O)Nc1ccc2oc(-c3ccc(OC)cc3)nc2c1 (stereo unspecified)	–	inactive: 14.1%
O=C(COc1ccc(S(=O)(=O)NC2CCCCC2)cc1)Nc1ccc(C(F)(F)F)cc1	–	inactive: -25.4%
Cc1cc(N2CCCCC2)nc2ccc(NC(=O)/C=C/c3ccccc3OC(C)C)cc12	–	inactive: -21.8%
CCOc1cccc(CC(=O)N2CCc3c([nH]c4ccccc34)C2c2ccc(F)cc2)c1OCC (stereo unspecified)	–	inactive: -26.1%
Cc1ccc(CNC(=O)CSCc2ccc(F)cc2)cc1	–	inactive: -14.9%
O=S(=O)(c1ccccc1)n1nc(-c2ccccc2)nc1NCc1ccc(Cl)cc1	–	inactive: -12.7%
CCCCNC(=O)CCn1c(=O)c2ccccc2n(Cc2ccccc2C#N)c1=O	–	inactive: -7.66%
CCOc1ccc(CC(=O)Nc2c(C(=O)c3ccc(C)cc3)oc3ccccc23)cc1OCC	–	inactive: -0.434%
CCC(=O)N1CCc2cc(Br)cc(S(=O)(=O)N3CCCC(C(=O)Nc4cccc(Cl)c4C)C3)c21 (stereo unspecified)	–	inactive: -13.6%
Cc1ccc(C(=O)COC(=O)C(CC(C)C)NC(=O)C2CCC(C)CC2)cc1 (stereo unspecified)	–	inactive: -10.6%
O=C(O)CCc1nc2ccccc2[nH]1	–	inactive: 3.6%
COc1cc(C2N=C(N)Nc3nc4ccccc4n32)ccc1OCCC(C)C (stereo unspecified)	–	inactive: -14.9%
CC(=O)c1cccc(NC(=O)C2CCCN(c3nnc(-n4cccc4)s3)C2)c1 (stereo unspecified)	–	inactive: -18.3%
O=C(Cc1cccc([N+](=O)[O-])c1)NCc1nc2cccnc2n1Cc1ccc(F)cc1	–	inactive: -19.6%
Cn1c(=O)cc(OCCCC(=O)Nc2ccc(F)cc2)c2ccccc21	–	inactive: 29.9%
CCOc1ccc(NS(=O)(=O)c2cc(Br)cc3c2N(C(=O)C2CC2)CC3)cc1	–	inactive: -22.2%

SMILES	Potency	activity change, negative = inhibition
CCCN(CCC)CCCNC(=O)C1CCCN(S(=O)(=O)c2cccc3nsnc23)C1 (stereo unspecified)	–	inactive: -0.113%
Cc1ccccc1-c1nc(CS(=O)(=O)CC(=O)N2CCN(c3ccccc3)CC2)c(C)o1	–	inactive: -26.3%
CCC1CCc2nc3sc(C(=O)Nc4ccc(F)cc4F)c(N)c3cc2C1 (stereo unspecified)	–	inactive: 15.4%
CC(=O)Nc1cccc(C(=O)NCc2ccc3c(c2)CCN3C(=O)c2ccccc2)c1	–	inactive: -22.9%
CCOc1ccc(CCNC(=O)Cn2nnc(-c3ccccc3)n2)cc1OCC	–	inactive: -10.1%
COc1cc(NS(=O)(=O)c2ccc(NC(=O)c3ccccc3C(=O)O)cc2)nc(OC)n1	–	inactive: -7.69%
CCCCNC(=O)CSc1nc2nc(C)c(Cc3ccccc3C)c(C)n2n1	–	inactive: -22.3%
COc1cccc(C(=O)Nc2cc(-c3ccccc3)no2)c1	–	inactive: 39.1%
CC(C)CC(=O)Nc1ccc(C(=O)OCc2cc(=O)n3nc(C(C)C)sc3n2)cc1	–	inactive: -31.2%
COc1ccc(C(=O)N2CC(=O)Nc3ccc(F)cc3C2c2ccc(F)cc2)c(OC)c1 (stereo unspecified)	–	inactive: -33.1%
CCOC(=O)c1sc(NC(=O)/C=C/c2ccc(OCC)cc2)c(C(=O)OCC)c1C	–	inactive: 16.2%
Cc1ccc(NC(=O)c2oc3ccccc3c2NC(=O)c2cc3ccccc3o2)cc1	–	inactive: 1.52%
O=C(CSc1cn(CCNC(=O)c2c(F)cccc2F)c2ccccc12)Nc1ccc2c(c1)OCCO2	–	inactive: -16.5%
CC(C)CC(NS(=O)(=O)c1ccc2c(c1)oc(=O)n2C)C(=O)NCCc1ccc(Cl)cc1 (stereo unspecified)	–	inactive: -7.05%
COC(=O)c1ccc(NC(=O)c2cc(S(=O)(=O)N3CCc4ccccc43)cn2C)cc1	–	inactive: -10.3%
CCCc1nc(C)c2c(=O)[nH]c(-c3cc(S(=O)(=O)N4CCN(CC)CC4)ccc3OCC)nn12	–	inactive: 2.36%
Cc1cc(C)cc(NS(=O)(=O)c2ccc3[nH]cc(C(=O)N4CCCC4)c(=O)c3c2)c1	–	inactive: -9.86%
CCOc1ccccc1NC(=O)Cn1cnc2onc(-c3ccc(F)cc3)c2c1=O	–	inactive: -11.2%
O=C(OCc1cc(=O)n2nc(C3CC3)sc2n1)c1ccc(F)cc1	–	inactive: 18.6%
CC1=C(C(N)=O)C(c2cccc(Br)c2)n2nc(SCc3ccccc3)nc2N1 (stereo unspecified)	–	inactive: -5.17%
O=C(NCc1cccnc1)C1CCN(Cc2cc3ccccc3n2Cc2cccc(Cl)c2)CC1	–	inactive: -23.3%
CCCCc1nnc(SCc2cc(=O)c3cc(C(=O)OCC)ccc3[nH]2)n1C	–	inactive: 13.2%
Cc1cc(NC(=O)C(C)C)cc(-c2nc3ncccc3o2)c1O	–	inactive: -8.1%
Cc1ccc2nc(-c3ccc(O)cc3)c(Nc3ccc4c(c3)OCO4)n2c1	–	inactive: 8.13%

SMILES	Potency	activity change, negative = inhibition
CC(C)N(Cc1ccccc1)C(=O)CCS(=O)(=O)c1cc2c(cc1Cl)NC(=O)CO2	–	inactive: -18.6%
Cc1cc(C)n2nc(SCC(=O)Nc3ccccc3)nc2n1	–	inactive: 8.28%
Cc1cc2nc(-c3cc(NC(=O)c4cc5ccccc5o4)ccc3Cl)oc2cc1C	–	inactive: 21%
COc1cccc(C(=O)Nc2ccccc2OCc2cc(=O)n3cc(C)ccc3n2)c1	–	inactive: -0.424%
CCCNC(=O)C1CCN(S(=O)(=O)c2ccc3c(c2)CCCN3C(C)=O)CC1	–	inactive: -5.44%
Cc1ccccc1OCc1nnc(SCc2cc(=O)c3ccccc3[nH]2)n1C	–	inactive: -8.6%
COc1ccc(N(CC(=O)NCCc2cccc(C)c2)S(=O)(=O)c2c(C)nn(C)c2C)cc1	–	inactive: -15%
COc1ccccc1N1CCN(C(CNC(=O)C(=O)NCCCN(C)C)c2cccnc2)CC1 (stereo unspecified)	–	inactive: -2.03%
CCOC(=O)C1=C(CS(=O)(=O)c2c(C)cc(C)cc2C)NC(=O)NC1c1cccc(OC)c1 (stereo unspecified)	–	inactive: -14.7%
N#Cc1c(NC(=O)c2cc3nc(-c4ccc(Br)cc4)cc(C(F)(F)F)n3n2)sc2c1CCCC2	–	inactive: -1.78%
O=C1CC(c2ccccc2C(F)(F)F)c2c(c3ccccc3[nH]c2=O)O1 (stereo unspecified)	–	inactive: -9.99%
COC(=O)c1cccc(Nc2c(-c3ccc(O)c(OC)c3)nc3nc[nH]n23)c1	–	inactive: -10.6%
CCOc1ccc(-c2c(C)nn3c(C)c(C(=O)Nc4ccccc4C(=O)OC)cnc23)cc1OCC	–	inactive: -20.8%
Cn1c(=O)c2c(ncn2CC(O)CO)n(C)c1=O (stereo unspecified)	–	inactive
COCc1cc(C)nc2sc3c(c12)NC(c1ccc(O)cc1)N(c1ccc(OC)cc1)C3=O (stereo unspecified)	–	inactive: -2.87%
CCOc1ccc(NC(=O)C2Cc3ccccc3N2C(=O)c2ccccc2)cc1 (stereo unspecified)	–	inactive: -15%
COc1ccccc1NC(=O)Cc1c(C(=O)O)[nH]c2ccc(Cl)cc12	–	inactive: -0.382%
Cc1ccc(-c2nc3cc(C(C)C)ccc3o2)cc1NC(=O)c1cccs1	–	inactive: 9.76%
COCCn1c(C)cc(O)c(C(c2ccccc2)N2CCN(C)CC2)c1=O (stereo unspecified)	–	inactive: -14%
Cc1cccc(NC(=O)CSc2nc3ccc(NC(=O)c4ccco4)cc3s2)c1	–	inactive: -5.36%
COc1cccc(NC(=O)CCNS(=O)(=O)c2ccc(Br)s2)c1	–	inactive: -7.26%
COc1ccc(CNC(=O)Cc2csc3ccccc23)cc1OC	–	inactive: -6.57%
CCc1nn(CC(=O)N2CCCCC2)c(=O)c2cc3sccc3n12	–	inactive: -13%
COc1cc(Br)c(/C=C(\C#N)c2nc3ccccc3[nH]2)cc1OC	–	inactive: 52.3%

SMILES	Potency	activity change, negative = inhibition
CCc1ccccc1NC(=O)C1CCC(CNS(=O)(=O)c2ccc3c(c2)CC(C)N3C(C)=O)CC1 (stereo unspecified)	–	inactive: -16.4%
Cc1cn2c(=O)c(S(=O)(=O)NCCc3ccccc3)c(C)nc2s1	–	inactive: -5.3%
COc1ccc2nc(NC(=O)c3nc(SCc4ccc(F)cc4)ncc3Cl)sc2c1	–	inactive: -7.46%
CCOc1ccc(-c2nnc(SCC(=O)NCCC(C)C)nc2-c2ccc(OCC)c(OC)c2)cc1OC	–	inactive: -23.5%
Cc1ccc(N2C(=O)CSC23C(=O)N(CC(=O)NC2CCCCC2)c2ccccc23)cc1 (stereo unspecified)	–	inactive: -13%
CC(C)CN1CCc2nc(N3CCN(c4ncccn4)CC3)ncc2C1	–	inactive: 7.28%
COc1cccc(C(=O)NCC(c2ccc(N(C)C)cc2)N2CCCC2)c1OC (stereo unspecified)	–	inactive: 5.59%
COc1ccc2nc(SCC(=O)c3c(C)[nH]c4ccccc34)nc(C)c2c1	–	inactive: -1.21%
CCOc1ccc(OCC)c(NC(=O)C2CCN(S(=O)(=O)c3ccc(Br)s3)CC2)c1	–	inactive: 2.19%
O=C(Nc1ccc(F)cc1)[C@H](CSCc1ccccc1)N1Cc2ccccc2C1=O	–	inactive: -18.3%
Cc1ccc(S(=O)(=O)c2nnn3c2nc(N2CCN(c4ccc(F)cc4)CC2)c2cc(Cl)ccc23)cc1C	–	inactive: 8.51%
COc1cccc(-n2c(=O)c3c(C)c(C(=O)N(C)C)sc3n(CC(=O)NCCc3ccc(OC)c(OC)c3)c2=O)c1	–	inactive: 0.188%
NC(=O)c1cccnc1	–	inactive
CCc1ccc(NC(=O)CSc2nc3nccnc3c(=O)n2CCc2c[nH]c3ccccc23)cc1	–	inactive: -9.4%
COc1ccc(-c2nc(C)c(CCNC(=O)Cc3ccc(F)cc3)s2)cc1OC	–	inactive: -17.5%
COc1cc2ccccc2cc1C(=O)Nc1cccc(-c2nc3cc(C)c(C)cc3o2)c1C	–	inactive: -15.5% [at 11.5 µM]
COc1ccc2oc(=O)c(C(=O)NCCc3c(C)[nH]c4c(Cl)cccc34)cc2c1	–	inactive: -0.443%
Cc1nc2nc(NCc3cccc(Br)c3)[nH]n2c(=O)c1Cc1ccccc1	–	inactive: -6.22%
CCc1ccccc1NC(=O)N1CCN(c2cc(-c3noc(C)n3)ccc2C)CC1	–	inactive: -15.5%
Cc1ccc(CN(C(=O)COc2cccc([N+](=O)[O-])c2)c2ccccn2)o1	–	inactive: -27%
CCC(=O)N1CCc2cc(Br)cc(S(=O)(=O)N3CCCC(C(=O)Nc4ccc(OC)c(Cl)c4)C3)c21 (stereo unspecified)	–	inactive: -0.129%
Cn1nnnc1SCCNCc1ccc(F)cc1	–	inactive: -8.11%
CCOc1ccc(CNC(=O)CCC(=O)N2CC(C)Sc3ccccc32)cc1 (stereo unspecified)	–	inactive: -19.2%
O=C(CSc1nccn1-c1ccccc1)Nc1nc2ccccc2s1	–	inactive: 0.198%
